This note sets out measurements from paper PMC4336329 (PLoS ONE, 2015).

Hit rate of the full screen: of about 310,000 compounds, about 14,000 (4.5%) showed an effect of 50% or more. The effect is printed as a negative number. The list shows a part of the results.
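Further: peak tail current of the secondary pulse compared with the same well before compound.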

Sequence of human ether-à-go-go-related gene (hERG) potassium channel (Q12809 whole entry, looked up): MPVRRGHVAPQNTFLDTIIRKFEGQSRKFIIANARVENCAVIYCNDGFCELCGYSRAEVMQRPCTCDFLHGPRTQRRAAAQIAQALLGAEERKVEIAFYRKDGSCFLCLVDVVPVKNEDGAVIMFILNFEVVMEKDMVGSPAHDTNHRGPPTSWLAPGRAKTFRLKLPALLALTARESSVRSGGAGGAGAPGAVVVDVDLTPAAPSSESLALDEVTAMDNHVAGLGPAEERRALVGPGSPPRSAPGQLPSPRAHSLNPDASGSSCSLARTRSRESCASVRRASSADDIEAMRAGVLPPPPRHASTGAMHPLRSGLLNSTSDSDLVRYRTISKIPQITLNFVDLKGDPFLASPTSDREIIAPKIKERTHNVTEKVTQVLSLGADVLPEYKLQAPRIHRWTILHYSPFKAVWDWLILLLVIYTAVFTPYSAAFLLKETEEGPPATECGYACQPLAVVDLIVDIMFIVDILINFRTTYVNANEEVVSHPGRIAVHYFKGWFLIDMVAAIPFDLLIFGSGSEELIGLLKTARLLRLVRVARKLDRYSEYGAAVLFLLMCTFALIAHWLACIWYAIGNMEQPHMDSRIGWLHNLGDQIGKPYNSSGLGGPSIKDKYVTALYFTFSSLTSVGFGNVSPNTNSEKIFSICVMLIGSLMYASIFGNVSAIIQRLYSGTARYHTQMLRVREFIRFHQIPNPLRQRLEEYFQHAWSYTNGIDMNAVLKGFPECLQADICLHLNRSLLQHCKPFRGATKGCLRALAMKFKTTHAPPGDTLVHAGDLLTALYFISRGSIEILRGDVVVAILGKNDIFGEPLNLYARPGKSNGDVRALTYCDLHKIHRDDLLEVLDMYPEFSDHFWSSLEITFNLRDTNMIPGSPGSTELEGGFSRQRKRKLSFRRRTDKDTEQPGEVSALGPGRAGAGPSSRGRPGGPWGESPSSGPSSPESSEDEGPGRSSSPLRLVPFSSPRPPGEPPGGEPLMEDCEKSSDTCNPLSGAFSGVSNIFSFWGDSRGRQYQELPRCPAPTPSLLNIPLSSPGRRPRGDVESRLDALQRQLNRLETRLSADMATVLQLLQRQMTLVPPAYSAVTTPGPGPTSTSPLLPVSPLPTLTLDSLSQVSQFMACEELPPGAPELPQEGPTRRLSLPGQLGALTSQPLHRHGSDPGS

The test addresses human ether-à-go-go-related gene (hERG) potassium channel (human, UniProt Q12809). Nature of the test: primary screen, population patch clamp on CHO cells stably expressing hERG.
As to `Cc1cc(C)c(NC(=O)CSc2nnc(SCC(=O)Nc3c(C)cc(C)cc3C)n2N)c(C)c1`, the “hERG current change (%, negative = inhibition) at 10uM” value is recorded as 2.93%. In the case of `CC(C)c1ccc(NS(=O)(=O)c2cccc3cccnc23)cc1` it was -3.65%; in that of `COC(=O)c1cc(S(=O)(=O)NCC2CCN(CCc3ccc(OC)cc3)CC2)cn1C`, -61.2%. In the case of `Cc1ccc(-c2nnc(Oc3ccc(NC(=O)c4ccccc4)cc3)c3ccccc23)cc1` it was 1.95%; in that of `Cc1nnc(SCC2=C(C(=O)O)N3C(=O)C(NC(=O)COc4ccc(F)cc4)C3SC2)s1` (stereo not drawn), 37.9%. In the case of `COc1ccc2c(c1)C=C(CN1CCN(C(C)C)C(CCO)C1)CO2` (stereo not drawn) it was 5.68%. Turning to `COCCN1CC(O)=C(c2nc3ccccc3c(=O)[nH]2)C1=N`, the “hERG current change (%, negative = inhibition) at 10uM” value is given as 11.3%. Consider `CCSc1nnc(-c2c[nH]c3ccccc23)o1`, for which the “hERG current change (%, negative = inhibition) at 10uM” value is reported as -2.59%. To `Cc1cccc(Cn2nnc3ccccc32)c1O` belongs 1.09%; to `COc1ccccc1/C=C1\SC(=S)N(CCC(=O)NNC(=O)c2ccccc2O)C1=O`, 4.15%; to `Cc1ccc(C)c(OCc2cc(C(=O)NC(C)c3cnn(C)c3)no2)c1` (stereo not drawn), -7.2%. Take `CN(C)c1nc(N)nc(CSc2nnnn2-c2cccc3ccccc23)n1`: the “hERG current change (%, negative = inhibition) at 10uM” value is on record as -12.4%. To `O=C1CCCCc2sc(Br)c([N+](=O)[O-])c2N1` belongs 9.25%; to `COc1cccc(-n2nnnc2SCC(=O)Nc2ccc(C(C)=O)cc2)c1`, 19.4%. To `CN(C)c1ccc(C(=O)NCCCSc2ccccc2)cc1` belongs 16.1%; to `COCCNC(=O)NC(=O)CN1CCCc2ccccc21`, -1.83%. Consider `Cc1ccccc1NC(=O)c1ccccc1-c1ccccc1`, for which the “hERG current change (%, negative = inhibition) at 10uM” value is -24.4%. Take `Cc1cccc(Nc2ncnc3onc(-c4ccc(F)cc4)c23)c1C`: the “hERG current change (%, negative = inhibition) at 10uM” value is reported as -4.56%. On to `O=[N+]([O-])c1cccc(-c2ccc(CN3CCN(c4ccccc4)CC3)o2)c1`, for which the “hERG current change (%, negative = inhibition) at 10uM” value is 3.17%. To `COc1ccccc1N1CCN(C(=O)CSc2nc(C)c(Cc3ccccc3)c(=O)[nH]2)CC1` belongs -49.3%. In the case of `C=CCCN([C@@H](C)C(=O)OC)S(=O)(=O)c1ccccc1Br` it was 0.0767%; in that of `O=C1N(c2ccccc2)C(c2ccc(Cl)cc2)N2CCCN12` (stereo not drawn), -17.2%. In the case of `C=CCNC(=S)Nc1cc(Cl)ccc1OC` it was 15.6%. As for `Cc1cc[n+](CC(=O)c2cccs2)cc1.[Br-]`, the “hERG current change (%, negative = inhibition) at 10uM” value turned out to be 10.5%.

Turning to `CC(=O)c1sc(NC(=O)CS(=O)(=O)c2ccccc2)nc1-c1ccccc1`, the “hERG current change (%, negative = inhibition) at 10uM” value is given as 6.7%. As to `Cc1cccc(C)c1NC(=O)CSc1nnc(-c2ccco2)c(-c2ccco2)n1`, the “hERG current change (%, negative = inhibition) at 10uM” value was -67.1%. To `CC1CCCCN1C(=O)c1ccccc1NC(=O)c1ccco1` (stereo not drawn) belongs 6.13%. Consider `O=C(CN1C(=O)NC2(CCCc3ccccc32)C1=O)Nc1cccc(S(=O)(=O)N2CCCCC2)c1` (stereo not drawn), for which the “hERG current change (%, negative = inhibition) at 10uM” value was found to be 23.3%.

Consider `COc1ccc(CNC(=O)C(c2cccs2)N(C(=O)c2csnn2)C2CC2)cc1` (stereo not drawn), for which the “hERG current change (%, negative = inhibition) at 10uM” value is recorded as -12.2%. In the case of `CCC(=C/c1sc2ccc3ccccc3c2[n+]1C)/C=C1\Sc2ccc3ccccc3c2N1C.[Cl-]`, the “hERG current change (%, negative = inhibition) at 10uM” value is 11.8%. To `O=C(Nc1c(C(=O)N2CCCC2)cnn1-c1ccccc1)c1cccc(F)c1` belongs 1.72%.

For the compound `CC(=O)c1c(C)[nH]c(C(=O)OCC(=O)Nc2sc3c(c2C#N)CCCC3)c1C`, the “hERG current change (%, negative = inhibition) at 10uM” value is 10.9%. For `CC(C)(C)c1cn(-c2ccccc2)c(=S)[nH]1`, the “hERG current change (%, negative = inhibition) at 10uM” value was determined as 17.8%. In the case of `CC1(C)Cc2c(c(-c3ccccc3)[nH]c(=O)c2C#N)CO1` it was 7.15%; in that of `O=C(NCc1ccc(N2CCCC2=O)cc1)Nc1cccc2ccccc12`, 14.3%. To `COc1ccc(-c2cc(CCCC(=O)NCc3ccccn3)no2)cc1` belongs -15.9%; to `Cc1cc(C)nc(N2CCCC(C(=O)NNC(=O)c3ccncc3)C2)n1` (stereo not drawn), -13.2%. As to `COC(=O)c1c(NC(=O)COC(=O)c2ccc(C)s2)sc2c1CCCCC2`, the “hERG current change (%, negative = inhibition) at 10uM” value is recorded as 15.7%.

Turning to `COc1ccccc1C(=O)NC(=O)COC(=O)C1CC1C` (stereo not drawn), the “hERG current change (%, negative = inhibition) at 10uM” value was -3.4%.

As to `CC(=O)c1ccc(N2CCC(C)CC2)c(F)c1`, the “hERG current change (%, negative = inhibition) at 10uM” value is reported as 34.8%.

In the case of `CC(=O)N=c1sc(C(C)(C)C)c(C)n1C`, the “hERG current change (%, negative = inhibition) at 10uM” value came to 6.95%. In the case of `CC(=O)C(C(C)=O)c1c(Cl)c(O)c(O)c2c(C(=O)c3ccccc3)coc12` it was -43.8%; in that of `Cc1ccc2c(c1)N(S(=O)(=O)c1cc(-c3cc(C)no3)ccc1C)CCO2`, 7.89%. In the case of `Cc1ccc(Oc2ccc(OCC(=O)NC3CCS(=O)(=O)C3)cc2)cc1` (stereo not drawn) it was -2.44%. In the case of `CC(C)CCNC1=CC(=O)CC(c2ccccc2)C1` (stereo not drawn) it was -33.2%; in that of `COc1ccc(CNS(=O)(=O)c2c(C(=O)N3CCCCCC3)c(C)n(C)c2C)cc1`, 16.8%; in that of `O=C(/C=C/c1ccco1)N/C(=C\c1ccco1)C(=O)NCCc1nc2ccccc2[nH]1`, -22.6%. As for `Cc1ccnc(NC(=O)c2ccc([N+](=O)[O-])s2)c1`, the “hERG current change (%, negative = inhibition) at 10uM” value is on record as 2.19%. To `COc1ccc(NC(=O)c2cc(-c3ccc(C)cc3)on2)cc1` belongs 12.6%.

For the compound `O=S(=O)(Nc1ccccc1)c1ccc2c(c1)CCO2`, the “hERG current change (%, negative = inhibition) at 10uM” value is on record as 11%. Regarding `Cc1cccc(N(C(=O)CNC(=O)c2ccco2)C(C(=O)NC2CCCC2)c2ccncc2)c1` (stereo not drawn), the “hERG current change (%, negative = inhibition) at 10uM” value was 7.95%. To `O=c1[nH]c(=O)n(Cc2ccccc2)c(O)c1C=NCCN1CCNCC1` belongs 12.4%; to `CN1CCN(c2ccc(NC(=O)CSc3nnnn3-c3ccccc3Cl)cc2)CC1`, -39.1%. To `CC(/C=C(\C)Nc1ccccc1)=[NH+]c1ccccc1.[O-][Cl+3]([O-])([O-])[O-]` belongs 26.9%. For the compound `CCc1noc(C)c1C(=O)N1CC(C)SC1=Nc1ccc(Cl)cc1` (stereo not drawn), the “hERG current change (%, negative = inhibition) at 10uM” value is listed as -30.4%.

As for `Cc1cccc(C(=O)N[C@H](C(=O)Nc2nnc(C3CC3)s2)C(C)C)c1`, the “hERG current change (%, negative = inhibition) at 10uM” value worked out at 15.2%. Take `CC(C)(C)OC(=O)N1CCC[C@H]1c1nnc(SCc2ccccc2F)o1`: the “hERG current change (%, negative = inhibition) at 10uM” value is on record as -7.91%.

In the case of `COCCNC(=O)C(c1ccc(C)cc1)N(C(=O)CCC(=O)Nc1ccccn1)c1ccc(C)cc1` (stereo not drawn), the “hERG current change (%, negative = inhibition) at 10uM” value is listed as 14.4%. Regarding `CCCc1nc2oc3c(NCc4ccccn4)ncnc3c2c2c1COC(C)(C)C2`, the “hERG current change (%, negative = inhibition) at 10uM” value was -17.8%. Take `N#C/C(C(=O)N1CCCCC1)=C1\Nc2ccccc2S1`: the “hERG current change (%, negative = inhibition) at 10uM” value was determined as 3.64%.

On to `O=C(Nc1nc2ccccc2[nH]1)C1CCN(C(=O)c2ccc(F)cc2)CC1`, for which the “hERG current change (%, negative = inhibition) at 10uM” value is listed as -41.7%.

`CC(=O)c1ccc(N2CCN(C(=O)Nc3cccc(F)c3)CC2)cc1`: the “hERG current change (%, negative = inhibition) at 10uM” value was -15.4%. Take `CCc1ccc(C2CC(=O)NC(SCC(=O)OC(C)C)=C2C#N)cc1` (stereo not drawn): the “hERG current change (%, negative = inhibition) at 10uM” value was -16.1%. On to `Cc1ccccc1CN1C(=O)c2ccccc2Sc2ccc(C(=O)NCCCN3CCOCC3)cc21`, for which the “hERG current change (%, negative = inhibition) at 10uM” value is -62.9%.

For `Cc1ccc2c(c1)CNc1ccccc1O2`, the “hERG current change (%, negative = inhibition) at 10uM” value is on record as -13.7%. In the case of `COC(=O)C(O)(NC(=O)NC(C)=O)C(F)(F)F` (stereo not drawn) it was 6.61%; in that of `O=C1CCCN1CCCNc1ncccc1[N+](=O)[O-]`, 10.7%; in that of `COc1cc(/C=N/NC(=O)CSc2nc3ccccc3n2C)cc(OC)c1OC`, 15.6%. To `CC1CCN(S(=O)(=O)N2CCN(C(=O)c3ccc4c(c3)OCO4)CC2)CC1` belongs -20.4%. For the compound `CC(=O)[C@H]1CC[C@H]2[C@@H]3CCC4=CC(=O)CC[C@]4(C)[C@H]3[C@H](O)C[C@]12C`, the “hERG current change (%, negative = inhibition) at 10uM” value was -9.39%. In the case of `Cc1ccc(N2CC(C(=O)Nc3ccc(S(=O)(=O)NCC4CCCO4)cc3)CC2=O)cc1C` (stereo not drawn) it was 12.7%. As for `O=C(CSc1nnc(-c2ccccc2)o1)N1CCCC1`, the “hERG current change (%, negative = inhibition) at 10uM” value came out at 15.6%. To `Cc1ccc(CSc2nnc(-c3ccncc3)n2C)cc1` belongs 4.36%; to `O=C(c1ccc(-n2cncn2)c([N+](=O)[O-])c1)N1CCN(S(=O)(=O)c2ccc(Br)cc2)CC1`, -67.5%; to `CCCSC1=C(C#N)C(c2ccccc2C)CC(=O)N1` (stereo not drawn), 1.21%. `CCC(=O)N1CCN(c2nc(-c3ccc(Cl)cc3)cs2)CC1`: the “hERG current change (%, negative = inhibition) at 10uM” value was -25%. To `CN(C)S(=O)(=O)c1cccc(NC(=S)NC23CC4CC(CC(C4)C2)C3)c1` belongs 6.29%. In the case of `COc1ccc(/C=C/C(=O)O/N=C(\N)c2ccccc2)cc1OC` it was -17.3%; in that of `CCN(CC)C(=O)Oc1ccc(Br)cc1C(=O)Nc1ccc(F)c(Cl)c1`, 2.76%; in that of `Cc1ccc(CS(=O)(=O)CCC(=O)NCc2cccs2)cc1`, -10%.

As for `O=C(N/N=C/C=C/c1ccco1)c1cccnc1`, the “hERG current change (%, negative = inhibition) at 10uM” value was found to be 4.64%. As for `Cc1ccc(C(C(=O)NC2CCCCC2)N(C(=O)c2csnn2)C2CC2)cc1` (stereo not drawn), the “hERG current change (%, negative = inhibition) at 10uM” value is -9.75%.

Regarding `CCCCCN(C(=O)CCC(=O)OCC(=O)N(C)C1CCCCC1)c1c(N)n(CCCC)c(=O)[nH]c1=O`, the “hERG current change (%, negative = inhibition) at 10uM” value was -0.0368%. Turning to `Cc1ccc(N(C(=O)CCC(=O)Nc2nccs2)C(C(=O)NC(C)(C)C)c2ccc(O)cc2)cc1` (stereo not drawn), the “hERG current change (%, negative = inhibition) at 10uM” value amounted to 15.3%.

Regarding `COc1ccccc1NS(=O)(=O)c1cccc(C(=O)NN)c1`, the “hERG current change (%, negative = inhibition) at 10uM” value is given as -5.56%. In the case of `CCCOc1ccc(C(=O)NCCO)cc1` it was 11.7%; in that of `O=C(O)C(c1ccccc1)N1C(=O)/C(=C\c2ccc(-c3ccccc3Cl)o2)SC1=S` (stereo not drawn), 11.1%.
